Results published in PMC12136788.
Some of the results follow.

B1: chr3:128516864:128516865:+_ENSG00000075785_ENST00000265062|hu_hu|FALSE|FALSE (ssRNA)
RNA: GGGAGUUCUACAGUCCGACGAUCCUGCAUUGUGACUAGCCUGUCAUCCACCAUCACCUCCUUGGUCAGAAAGUCAGCUCCUAUUGUGGCUUUGUACUGAUUGCUGAAUUUCUUAUUCACAUACUGGUUCAUGAGUGAUGUCUUCAACAGAGGAUUGAGCAUCA
B2: chr8:93522421:93522422:+_ENSMUSG00000056608_ENSMUST00000048665|mus_mus|FALSE|FALSE (ssRNA)
RNA: GGGAGUUCUACAGUCCGACGAUCAGAUUGGAUCAUUGCUUGCAGAUGAAAAUCAGAGGCAGAUGGAUUGUAUGUAUCUCUAAAUUCUCCAAGUAUUUUCUCCUCAGCACCUUUGAUAAGAUACGGAUGAUUGCAGCAUUUCCUCAACAGAGGAUUGAGCAUCA
B3: chr2:47387792:47387793:-_ENSG00000143933_ENST00000272298|hu_hu|hu_hu_hu_mus_True|8_18 (ssRNA)
RNA: GGGAGUUCUACAGUCCGACGAUCUAAGGACAAUGACAGUAAGAUAAGGGAAGAAAACAUGGAGGAAUGAAGUCCUAAUUACUAUACAUGCAUAUUUUUUGACAGUAGGGGGGGGGACUUUUACAGAUAAGUUACAAAAACAAACAACAGAGGAUUGAGCAUCA
B4: 81584201_81584321_406_CDS_ENSMUSG00000071064_ENSMUST00000098614|mouse|control|control (ssRNA)
RNA: GGGAGUUCUACAGUCCGACGAUCGCCCAGGGAGGUGUCGGGGGAUGUGGACUGCUCUUGGAUCCGGUCCUCCAGGGACAGCUUAUAGUUCUCUUGGACUUCCCCAUAGGACGCUUCUGACGGAGUCUCAGAGGAGUUUCCGUACAACAGAGGAUUGAGCAUCA
B5: 74035966_74036999_1806_CDS_ENSG00000167881_ENST00000307877|human|control|control (ssRNA)
RNA: GGGAGUUCUACAGUCCGACGAUCGACAAGGGAAGGGUCCAGGCAGAAUGUCUCAAACCGUUCAACCAGAGGCUUAUUGUCCUUGACUUGGGAGGAGGAGGUCUCUGUUUGAUGAGCGUCGUUUGCAUCAAGGAUGGCUGCGGCCAACAGAGGAUUGAGCAUCA
B6: chr20:46266449:46266450:+_ENSG00000124151_ENST00000372004|hu_hu|motif|central (ssRNA)
RNA: GGGAGUUCUACAGUCCGACGAUCUUGCUUAGUCCCCAGAUGACUACCAUUUGAGGAUAUGGAAUUAUUGUAAAAGUCAGAACGGGUCAGAUCACCAAGAAUAGCAUCUAGAUUAUCCAAGUCUCCAGAUCCCUCUUCACUUGUCAACAGAGGAUUGAGCAUCA
B7: chr13:100193533:100193534:-_ENSMUSG00000052727_ENSMUST00000064762|mus_mus|FALSE|FALSE (ssRNA)
RNA: GGGAGUUCUACAGUCCGACGAUCUUAAACAUUUGGAAAAUGUGAUUCACAGCAUUAAGUAGACUGCAUGGGUUCUCAGUGAGGAAACCCCUGGAGAAAUAUUGUUUAAACCCUCAGAGUAAAAGAGCAGUGCGAAACAUACGCCAACAGAGGAUUGAGCAUCA
B8: 102975785_102977221_268_CDS_ENSMUSG00000005687_ENSMUST00000005830|mouse|control|control (ssRNA)
RNA: GGGAGUUCUACAGUCCGACGAUCAAAUUCAUUUCUCAUUAUGUCUGUUUCAAAGGCAGAAUAAUCCGGGGCCGUCAGGUAGCUCAGGUAGUUCUUGGUAGGUCGGUAUCUGCGCGUCUCCUCCUCCACCAGGGCCGCCGCCGCCAACAGAGGAUUGAGCAUCA
B9: chr11:23194044:23194045:+_ENSMUSG00000020290_ENSMUST00000020538|mus_mus|FALSE|FALSE (ssRNA)
RNA: GGGAGUUCUACAGUCCGACGAUCUUGAAUAAACAUUUGGUUGUUAACUGGAUUUCCAGGAUUUAGUGGUGUACUUAUUUUUCCUUCUUCAACCAAAUUAAACAUAUAUGCAAGAAUUGAUGCAUGCAUUGUUAGACCUGCAGUCAACAGAGGAUUGAGCAUCA
B10: chr2:5814250:5814251:-_ENSMUSG00000025816_ENSMUST00000102981|mus_hu|mus_mus_mus_hu_True|1_28 (ssRNA)
RNA: GGGAGUUCUACAGUCCGACGAUCUUCCUUUCCGGUUUCUGAAUUUCUGGUAGAACUGCACAGAAUGGUUUGAUAACUUCUAAAAAUUUGAUGCCCAUGGCUGCUGCUCAGCACACCCAGGGGGAAACCGCGGCCUCGCAGCUGCAACAGAGGAUUGAGCAUCA
B11: chr12:53618122:53618123:+_ENSMUSG00000035133_ENSMUST00000110725|mus_mus|FALSE|FALSE (ssRNA)
RNA: GGGAGUUCUACAGUCCGACGAUCUCUUGUUCCCUCUAAGUUGAUAUAUUCUUCAUAAUCAGGAUGAUUUUUUAAUUUAUUACUAACAGUUUUCCAAGUUGCAUGAUAAUCUCUCACAGUCUGUACAAGUUUUUCAAACUUGUCCAACAGAGGAUUGAGCAUCA
B12: chr1:60041781:60041782:+_ENSMUSG00000041040_ENSMUST00000036540|mus_hu|mus_mus_mus_hu_False|28_98 (ssRNA)
RNA: GGGAGUUCUACAGUCCGACGAUCAAGUUUACAAUAGCUCAACUUUAGCAGUAGUGGCAAAUUUUCUUUUAUUUUCCUUCACAAAAGAAAAUCUUUAUAACCCAGUCCAAUCCCAGAACAUAGUGAAAGCUAUAAAUUCUGACUCAACAGAGGAUUGAGCAUCA
B13: chr8:101931661:101931662:-_ENSG00000164924_ENST00000353245|hu_mus|FALSE|FALSE (ssRNA)
RNA: GGGAGUUCUACAGUCCGACGAUCGCUUCCUAAGUUAGAAAACUCCAUAGACCAAAAUUAUAAAUGGAACACAUUACCUUUUGCCAAUCACCCCCCACCCCAUAAAAGUCCACUUCAAUUGUUGAGGAGUAAGGGGAAAAUGUGCAACAGAGGAUUGAGCAUCA
B14: chr11:87793471:87793472:-_ENSMUSG00000020483_ENSMUST00000020775|mus_mus|mus_mus_mus_hu_False|28_98 (ssRNA)
RNA: GGGAGUUCUACAGUCCGACGAUCUGGACUUGAAAAUAAAAAAAAUAGCUGGAUCCCCCACCCCCCCACAUUGUCAACCCUACACGAGAGUUUUGAAGGCGACUCAUGAAUCAGCAGAGCUCAAACGGCAAUGACCACCCCACCCAACAGAGGAUUGAGCAUCA
B15: chr2:179515052:179515053:+_ENSMUSG00000000305_ENSMUST00000000314|mus_hu|mus_mus_mus_hu_False|38_38 (ssRNA)
RNA: GGGAGUUCUACAGUCCGACGAUCGCUGUCCCAUGCAGUCACCGUGAACGCCACCUGCUCGGAGGGGACCUGCAGCUCCCGGGUGGCGAAGACUGUCCCAUCCGCCCCAACUUUGAAGUCCAUGCUGUUGGUCUCAUAUUGUGUCAACAGAGGAUUGAGCAUCA
B16: chr3:179287964:179287965:+_ENSG00000136518_ENST00000429709|hu_hu|hu_hu_hu_mus_True|18_88 (ssRNA)
RNA: GGGAGUUCUACAGUCCGACGAUCCUUGAGUGGUGAGAUGGCCUCCAUAUUCUCCCUGGGCACGCGGAGGGCAUUGGUGUCUAUGUAGUAGGUGGGCCCGCCCUGCUUGCCUUUGUCGCCAUCUAUUUCCAUCAUUGUACUUCCCAACAGAGGAUUGAGCAUCA
B17: chr13:74460350:74460351:-_ENSMUSG00000021577_ENSMUST00000022062|mus_mus|motif|central (ssRNA)
RNA: GGGAGUUCUACAGUCCGACGAUCCACUGCACAAGAAUAAAGAGACAAAGUCUGGCGCAACUCAAUCCCUUACAGCAAGUACGGCCAAGCUGUUGAUCACAAUCUAUGAAGUGACUCCUUGUUCAUGAGAGCAGAAUUUUACCACAACAGAGGAUUGAGCAUCA
B18: chr3:148802587:148802588:-_ENSG00000071794_ENST00000310053|hu_mus|hu_hu_hu_mus_False|38_78 (ssRNA)
RNA: GGGAGUUCUACAGUCCGACGAUCUCCAACAACUUGUCCUCUCAUAGUUCCAAAUAAAACGGAAUCUUGCUCUUCAUCACUCGUUAGGAAGUCAUCUGGAGGGAUAAUGUCUUGGAAUUCAAAAUGUGGCAAGAAAGUUGAGUACAACAGAGGAUUGAGCAUCA
B19: chr16:17900988:17900989:-_ENSMUSG00000003527_ENSMUST00000003621|mus_mus|FALSE|FALSE (ssRNA)
RNA: GGGAGUUCUACAGUCCGACGAUCGUAGGAGCUGAAGCAGACACCAUGAAGGAGUGUCACGUCCUGGCUGGCUUCCUCUCUAGUUUCCUCCCAGGCUUUCUGACUCAACCCAAGACCACUGCCCUCCUACAUCGAUUGACGAUCCAACAGAGGAUUGAGCAUCA
B20: chr14:70842435:70842436:-_ENSG00000213463_ENST00000256366|hu_mus|FALSE|FALSE (ssRNA)
RNA: GGGAGUUCUACAGUCCGACGAUCAACAACCAGCAACCUGUGCUGUACUCUCAGGGACACAGCACAUCCCGCAUUACGGAAGAGGUCUACAGCAUCUUGGUGCAGCAGGUUCUUCAGAUCUUGGCCAUUUACCGAGAGGAUCUUCAACAGAGGAUUGAGCAUCA
B21: chr1:163115838:163115839:-_ENSG00000143248_ENST00000313961|hu_hu|FALSE|FALSE (ssRNA)
RNA: GGGAGUUCUACAGUCCGACGAUCUGGCUUAGUUUGAUUCUGUUACUAAAUUCUGUGAAUCAUUAUUUAAUCAAAUCUACUAAAGAUUAGAAAAAAUUCUAGCAAGACUUAUAAUCAUGAAAUACAGAAUUAAAAGUUUAAACCCAACAGAGGAUUGAGCAUCA
B22: 16701266_16701386_3632_CDS_ENSG00000145555_ENST00000513610|human|control|control (ssRNA)
RNA: GGGAGUUCUACAGUCCGACGAUCAGCGUUCUGGGGCAUGCAGUAGGUGGACUCGCCGCUGGAGGAGUUGUGUAGGCUCCCGGAGUCCUGCACUGAUGGGGCGAGCAGCACCGUGCUGUCCGCACUGGGGCUGGUGGGCACCACCAACAGAGGAUUGAGCAUCA

target: T1, UNK ZnF1-3 (human, UniProt Q9C0B0 31-174); assay: nsRBNS (natural sequence RNA bind-n-seq); RBNS binding buffer (assumed for nsRBNS): 25 mM Tris pH 7.5, 150 mM KCl, 3 mM MgCl2, 0.01% Triton X-100, 500 ug/ml BSA, 20 U/ml SUPERase-In, 4 C; UNK is unkempt and MSI1 is Musashi-1; names of the RNAs are library labels; protein concentration not given here; high values mean tight binding
T1 sequence: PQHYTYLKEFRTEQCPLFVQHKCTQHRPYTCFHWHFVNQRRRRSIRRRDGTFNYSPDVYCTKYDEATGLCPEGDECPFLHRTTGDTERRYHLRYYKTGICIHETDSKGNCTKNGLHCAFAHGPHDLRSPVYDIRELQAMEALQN

Which binding signal does the source give for B1 here?
The binding signal was 0.543 enrichment R.

With B2 as the binder, how does the binding signal read?
Its binding signal is 1.26 enrichment R.

With B3 as the binder, how does the binding signal read?
Its binding signal is 2.72 enrichment R.

For B4, which binding signal is on record?
The binding signal was 0.631 enrichment R.

Which binding signal does the source give for B5 here?
Its binding signal is 0.897 enrichment R.

B6 was tested. Which binding signal did it give?
Its binding signal is 0.959 enrichment R.

How did the binding signal turn out when B7 was run?
The binding signal was 1.13 enrichment R.

With B8 as the binder, how does the binding signal read?
Its binding signal is 0.7 enrichment R.

For B9, which binding signal is on record?
Its binding signal is 0.601 enrichment R.

How did the binding signal turn out when B10 was run?
The binding signal was 1.03 enrichment R.

With B11 as the binder, how does the binding signal read?
The binding signal was 0.798 enrichment R.

With B12 as the binder, how does the binding signal read?
Its binding signal is 0.367 enrichment R.

Which binding signal does the source give for B13 here?
Its binding signal is 1.2 enrichment R.

B14 was tested. Which binding signal did it give?
Its binding signal is 3.19 enrichment R.

How did the binding signal turn out when B15 was run?
The binding signal was 0.751 enrichment R.

Which binding signal does the source give for B16 here?
The binding signal was 0.478 enrichment R.

B17 was tested. Which binding signal did it give?
Its binding signal is 1.15 enrichment R.

B18 was tested. Which binding signal did it give?
The binding signal was 1.44 enrichment R.

With B19 as the binder, how does the binding signal read?
The binding signal was 0.864 enrichment R.

With B20 as the binder, how does the binding signal read?
The binding signal was 1.28 enrichment R.

B21 was tested. Which binding signal did it give?
Its binding signal is 0.763 enrichment R.

With B22 as the binder, how does the binding signal read?
The binding signal was 1.09 enrichment R.
